Measurements as given in PubChem BioAssay AID485364 (National Center for Advancing Translational Sciences (NCATS), 2010).
About 11,000 (3.1%) of roughly 360,000 compounds were called active. This list was built around the results that the source calls inconclusive (neither active nor inactive); the mix of calls is not that of the screen. The call rests on the fitted dose curve; in most records, active means well fitted inhibition curve with a large enough effect; inconclusive means small, poorly fitted or top-dose-only effect; inactive means no such curve, though single readings can be large or run the other way. No potency is given beside an inconclusive call; the fits are too rough.

target: Schistosoma mansoni thioredoxin glutathione reductase (TGR) (UniProt Q962Y6); assay: qHTS Assay for the Inhibitors of Schistosoma Mansoni Peroxiredoxins; conditions: purified TGR, DTNB reduction, TNB absorbance 405 nm; activity change, negative = inhibition: at 114 µM (top of the series) unless noted; further: nearly all actives have a fitted effect of over 60% in size
Outline: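 Kinetic colorimetric format: TGR-catalysed, NADPH-driven DTNB reduction monitored via TNB absorbance. Enzyme dispensed at 20 nM; compound exposure 15 min at room temperature before reaction start.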
On the % scale 0 is the no-effect control and ±100 the full control effect; potency means the concentration at half of the fitted maximal effect; tags describe the fitted curve by direction and shape.

| Compound | Potency | activity change, negative = inhibition |
| --- | --- | --- |
| COc1cccc(COC(=O)C2CC(=O)N(Cc3ccco3)C2)c1OC (centres undefined) | inconclusive [inhibitor, partial curve] |  |
| Cc1ccc(NC(=O)CCC(=O)OCC(=O)c2ccc(Oc3ccc([N+](=O)[O-])cc3)cc2)c(C)c1 | inconclusive [inhibitor, single point] |  |
| COc1ccc2c([N+](=O)[O-])c(Cl)[nH]c2c1 | inconclusive [inhibitor, single point] |  |
| CC(=O)N1CCc2cc(Br)cc(S(=O)(=O)NCc3ccccn3)c21 | inconclusive [inhibitor, partial curve, poor fit] |  |
| COc1ccc(NC(=S)Nc2ccccc2C(F)(F)F)cc1 | inconclusive [inhibitor, partial curve] |  |
| CC(C)n1c(SCC(=O)Nc2nncs2)nnc1-c1ccco1 | inconclusive [inhibitor, partial curve, poor fit] |  |
| c1coc(Cn2c(SCc3nc4ccccc4[nH]3)nnc2-c2cnccn2)c1 | inconclusive [inhibitor, partial curve] |  |
| C#CC(CO)N(CCN(Cc1ccccc1)C(C#C)CO)Cc1ccccc1 (centres undefined) | inconclusive [inhibitor, full curve] |  |
| CCOC(=O)c1c(C)[nH]c(C)c1S(=O)(=O)NCC(=O)Nc1cccc(C#N)c1 | inactive |  |
| CC(C)(C)OC(=O)N1CCC[C@H]1C(=O)Nc1ccc(C#N)cc1 | inactive |  |
| COc1cc([N+](=O)[O-])ccc1NC(=S)Nc1cccc(C(=O)O)c1 | inconclusive [inhibitor, partial curve] |  |
| O=C(COC(=O)/C=C/c1ccc(Br)o1)Nc1ccc2[nH]c(=O)[nH]c2c1 | inconclusive [inhibitor, partial curve] |  |
| CC1(C)N=C(SCc2ccccc2Cl)c2ccccc2N1 | inactive |  |
| CC(CCc1ccco1)NC(=O)Cn1nc(Cc2ccncc2)c2ccccc2c1=O (centres undefined) | inconclusive [inhibitor, partial curve] |  |
| Cc1cc(C)n(-c2ccc(S(=O)(=O)N3CCOCC3)cc2[N+](=O)[O-])n1 | inconclusive [inhibitor, partial curve] |  |
| CC(C)C1NC(C(=O)O)Cc2c1[nH]c1ccccc21 (centres undefined) | inconclusive [inhibitor, partial curve, poor fit] |  |
| COc1ccc(N2CCN(C(=O)CCN3C(=O)c4ccccc4S3(=O)=O)CC2)cc1 |  | inconclusive: -66.5% [inhibitor] |
| O=S(=O)(c1ccccc1)N1CCSC1c1ccco1 (centres undefined) | inconclusive [inhibitor, single point] |  |
| Cc1cc(Cl)ccc1NC(=S)NCc1ccc(S(N)(=O)=O)cc1 | inconclusive [inhibitor, full curve] |  |
| Cc1ccc2c(c1)=C/C(=C\c1c(O)[nH]c(=O)[nH]c1=O)C(=O)N=2 | active: 14.1 µM |  |
| Cc1oc(-c2cccc(Cl)c2)nc1CS(=O)(=O)CC(=O)NC(C)CCc1ccccc1 (centres undefined) | inconclusive [inhibitor, partial curve] |  |
| Nc1nonc1C(=O)NCCNC(=O)c1ccc(Cl)cc1 | inactive |  |
| O=C(NC(=S)Nc1ccccc1N1CCOCC1)c1ccco1 | inactive |  |
| Cc1cc(C(=O)Nc2ccccc2)oc(=O)c1 | inconclusive [inhibitor, partial curve] |  |
| Cc1nc2ccccc2nc(=O)c1NNc1ccccc1 | inactive |  |

| Compound | Potency | activity change, negative = inhibition |
| --- | --- | --- |
| CC1=C(C(=O)Nc2ccc(C)cc2C)C(c2cccs2)n2nc(SCc3cccc(C)c3)nc2N1 (centres undefined) | inactive |  |
| COC1=C(C)C(=O)O[C@]12C(=O)C(C)=C1CCCCN3[C@H]([C@@H]4C[C@H](C)C(=O)O4)CC[C@]132 | inconclusive [inhibitor, partial curve] |  |
| CCOC(=O)C1CCN(C(=O)CCS(=O)(=O)c2ccc3c(c2)CC(C)N3C(=O)CC)CC1 (centres undefined) | inconclusive [inhibitor, partial curve] |  |
| Cn1cnc([N+](=O)[O-])c1Nc1ccc(O)cc1 | active: 25.1 µM |  |
| Cc1ccc(C(=O)NCN2CCN(c3ccccc3)CC2)cc1 | inconclusive [inhibitor, partial curve] |  |
| O=C(NCc1cccc(CNC(=O)C(=O)NCc2ccco2)c1)C(=O)NCc1ccco1 | inconclusive [inhibitor, partial curve] |  |
| CC(C)CN(C(=O)CCC(=O)OCc1ccc(Cl)cc1Cl)c1c(N)n(CC(C)C)c(=O)[nH]c1=O | inactive |  |
| Cc1ccc(-c2nnc(SCC(=O)Nc3ccccc3F)o2)cc1 | inactive |  |
| NC(=O)COc1ccc(/C=C2\C(=O)ON=C2c2ccccc2)cc1 | inconclusive [inhibitor, full curve] |  |
| CCN(CC)CCn1c(NC(=O)c2ccccc2O)nc2ccccc21 | active: 44.7 µM |  |
| COc1ccccc1N1Cc2ccccc2C1 | inconclusive [inhibitor, full curve] |  |
| COc1ccccc1CNc1nc(-c2cc(C)n(C)c2C)cs1 | inconclusive [inhibitor, partial curve] |  |
| Cc1csc(NC(=O)CCSCCc2ccccn2)n1 | inactive |  |
| CCn1c(-c2c(Cl)c(C)nn2C)n[nH]c1=S | inconclusive [inhibitor, partial curve] |  |
| CC(=O)N1CCN(CCN=CC2=C(O)CC(c3cccs3)CC2=O)CC1 (centres undefined) | active: 44.7 µM |  |
| CC(C)OCCCNC(=O)c1ccc(C2SCC(=O)N2Cc2ccco2)cc1 (centres undefined) | active: 25.1 µM |  |
| CN(C)CCNc1nc2sc3c(c2c(=O)n1Cc1ccccc1)CCCCC3 | inactive |  |
| CCc1c(C)sc2nc3c(C(=O)N4CCOCC4)cc(C(=O)c4cc(F)ccc4O)cn3c(=O)c12 | inactive |  |
| O=C1OC(c2ccc3c(c2)OCO3)=N/C1=C\c1ccc(C(=O)O)cc1 | inconclusive [inhibitor, full curve, poor fit] |  |
| O=C(CCOc1ccccc1)N(Cc1cccnc1)c1nc2ccc(Cl)cc2s1 | inconclusive [inhibitor, full curve] |  |
| O=C1Nc2ccc(Br)cc2C1(O)c1ccccc1 (centres undefined) | inactive |  |
| O=C1Nc2cc(C(=O)N3CCC4(CC3)OCCO4)ccc2NC1CSCc1cccc(F)c1 (centres undefined) | active: 50.1 µM |  |
| Cc1ccccc1NC(=S)Nc1cccc([N+](=O)[O-])c1 | active: 44.7 µM |  |
| Cc1ccc(CC(NC(=O)c2ccccc2)C(=O)NC(CC(C)C)C(=O)O)cc1 (centres undefined) | inconclusive [inhibitor, partial curve] |  |
| CCOc1ccc(-c2nnc3ccc(SCc4ccc(C(=O)OC)o4)nn23)cc1 | inconclusive [inhibitor, partial curve] |  |

| Compound | Potency | activity change, negative = inhibition |
| --- | --- | --- |
| COC(=O)c1ccccc1S(=O)(=O)NNC(=O)c1ccccc1-n1cccc1 | inconclusive [inhibitor, partial curve] |  |
| Cc1ccc(CCNC(=O)C2CCC(=O)N(Cc3ccccc3F)C2)o1 (centres undefined) | active: 44.7 µM |  |
| CCOCCCN1C(=O)c2ccccc2CC1(C)C(=O)NC1CCCCC1 (centres undefined) | inactive |  |
| O=c1[nH]c(=O)n(Cc2ccco2)c(O)c1C=NCc1ccco1 | active: 25.1 µM |  |
| COC(=O)c1cc(OC)c(OC)cc1N=CC1=C(O)CC(C)(C)CC1=O | inconclusive [inhibitor, full curve, poor fit] |  |
| O=C(Cc1ccc([N+](=O)[O-])cc1)N1N=C2CCCCC2C1(O)C(F)(F)F (centres undefined) | inactive |  |
| Cc1ccc(C(=O)NC(=S)NNS(=O)(=O)c2ccc(C)cc2)cc1 | active: 22.4 µM |  |
| CCN(C(=O)COC(=O)c1cccn1C)C1CCS(=O)(=O)C1 (centres undefined) | inactive |  |
| On1c2c(c3c4nonc4ccc31)CCCC2 | inconclusive [inhibitor, full curve, poor fit] |  |
| COc1ccc2c(c1)OC1=C(C(=O)CCC1)C2C1=C(O)CCCC1=O (centres undefined) | active: 17.8 µM |  |
| O=[N+]([O-])c1ccc(Nc2ccc(N3CCOCC3)cc2)c([N+](=O)[O-])c1 | inconclusive [inhibitor, partial curve] |  |
| O=C(Nc1cnc(N2CCN(c3ccccc3)CC2)c(C(=O)O)c1)c1cccs1 | inconclusive [inhibitor, partial curve] |  |
| CN1CCc2c(sc3c2C(=O)NC(c2ccc(C(C)(C)C)cc2)N3)C1 (centres undefined) | inactive |  |
| O=C(Nc1nc2c(F)cc(F)cc2s1)C1CC(=O)N(Cc2ccco2)C1 (centres undefined) | active: 5.01 µM |  |
| Cc1cc(C)n(/N=C/c2ccc(O)cc2)c(=O)c1C#N | inactive |  |
| COc1ccc(NCc2cccn2-c2nnc(N3CCCCC3)s2)cc1OC | active: 44.7 µM |  |
| COc1cc(C(=O)OC(C)C(=O)NC(=O)NC2CCCCC2)ccc1OC(F)F (centres undefined) | inactive |  |
| O=c1cc(CN2CCc3ccccc32)nc2sccn12 | inconclusive [inhibitor, partial curve] |  |
| O=[N+]([O-])c1cccc(/C=C/c2nc[nH]c2[N+](=O)[O-])c1 | inactive |  |
| Cn1c(=O)n(CC(=O)NCC2CCCO2)c(=O)c2c3c(sc21)COC(C)(C)C3 (centres undefined) | inactive |  |
| O=C1NC(c2ccc(Br)cc2)=N/C1=C/c1ccco1 | inconclusive [inhibitor, partial curve] |  |
| COC(=O)CSc1nnc(CSc2nc(C)cc(C)n2)n1Cc1ccco1 | active: 39.8 µM |  |
| CC(=O)n1cc(C2C(=O)CCCC2=O)c2ccccc21 | inconclusive [inhibitor, single point] |  |
| COc1cc(OC)c(C(=O)/C=C/c2ccccc2)c(O)c1O | inconclusive [inhibitor, partial curve] |  |
